The source of these data is PubChem BioAssay AID488969 (Vanderbilt High Throughput Screening Facility, 2010).

Whole data set: some 110,000 compounds, median “z-score” near -0.1, cut for the highest 2% near 2. This is one part of the list. Activity calls are given as the source filed them.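 The calls were made as follows: active = z-score in the third read window above 3 or below -3; inactive = the rest.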

The assay addresses Metabotropic glutamate receptor 8 (Rattus norvegicus) (UniProt P70579). Briefly: mGluR8 Gi/Go-coupled signaling modulation – cell-based, rat, thallium flux, HTS, primary screen (AID 488969). Conditions: HEK293 rat mGluR8, GIRK (G protein-gated inwardly rectifying potassium channel) thallium flux, FluoZin2; at 10 µM; stronger effect = higher value; submaximal glutamate (EC20) added with thallium.
Chain of UniProt P70579 (P70579 whole entry, looked up): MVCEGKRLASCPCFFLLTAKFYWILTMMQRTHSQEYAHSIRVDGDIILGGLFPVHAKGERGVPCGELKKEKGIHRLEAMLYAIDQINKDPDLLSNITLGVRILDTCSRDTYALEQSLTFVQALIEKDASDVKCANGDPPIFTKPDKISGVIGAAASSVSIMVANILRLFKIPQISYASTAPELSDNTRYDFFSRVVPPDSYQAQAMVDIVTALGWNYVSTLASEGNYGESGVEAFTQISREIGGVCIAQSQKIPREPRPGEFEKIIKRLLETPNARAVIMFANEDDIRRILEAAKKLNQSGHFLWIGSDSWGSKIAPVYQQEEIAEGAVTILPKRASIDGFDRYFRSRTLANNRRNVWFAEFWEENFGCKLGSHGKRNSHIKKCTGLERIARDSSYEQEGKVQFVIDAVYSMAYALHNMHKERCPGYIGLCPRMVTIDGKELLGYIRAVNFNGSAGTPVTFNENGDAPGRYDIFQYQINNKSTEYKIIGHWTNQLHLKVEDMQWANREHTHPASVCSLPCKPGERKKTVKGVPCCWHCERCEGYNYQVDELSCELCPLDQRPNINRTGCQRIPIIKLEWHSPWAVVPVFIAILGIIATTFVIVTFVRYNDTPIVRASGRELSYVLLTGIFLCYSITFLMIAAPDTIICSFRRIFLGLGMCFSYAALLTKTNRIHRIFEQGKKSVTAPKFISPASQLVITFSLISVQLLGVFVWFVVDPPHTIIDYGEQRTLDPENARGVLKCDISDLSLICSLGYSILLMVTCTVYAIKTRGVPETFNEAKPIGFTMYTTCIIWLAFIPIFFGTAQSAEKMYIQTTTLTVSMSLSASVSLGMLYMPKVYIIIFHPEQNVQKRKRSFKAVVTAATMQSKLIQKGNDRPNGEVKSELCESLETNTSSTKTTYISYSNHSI
`O=S(=O)(c1ccc(NC2CCCCC2)cc1)N1CCOCC1` gave a z-score of -0.38.

Molecule `CCOC(=O)c1c(-c2cccs2)csc1NC(=O)COC(=O)c1c(C)noc1C` yielded a z-score of -0.376. In the case of `CCc1cccc2c(C(=O)COC(=O)c3ccccc3)c[nH]c12`, the z-score was 0.151. With `COc1ccc(S(=O)(=O)N2CCN(CC(=O)Nc3cc(OC)cc(OC)c3)CC2)cc1` the figure was 0.00976. `COc1ccccc1OCc1ccc(C(=O)OCC2CCCO2)o1` (configuration not stated): the z-score is -0.00893. In the case of `CCOC(=O)N1CCN(C(=O)CN(C2CCCCC2)S(=O)(=O)c2c(C)cc(C)cc2C)CC1`, the z-score was -0.0705. Turning to `CC(=O)N1C(=O)C(=C2C=C(C)OC(C)=C2)c2ccccc21`, the z-score was found to be 0.42. The molecule `CC(Sc1nc2cc([N+](=O)[O-])ccc2n1-c1ccc(F)cc1)C(=O)NCc1ccc2c(c1)OCO2` (configuration not stated) showed a z-score of -0.0673.

Regarding `CCc1nc(Cl)c(C#N)c2c1CCCC2`, the z-score was -0.311. `COc1ccc(-c2csc3nc(-c4ccc(C)cc4)oc(=O)c23)cc1OC` came in with a z-score of 0.338. `Cc1ccc(S(=O)(=O)Nc2cc3c(C(=O)Nc4ccccc4)c(C)oc3c3ccccc23)cc1` came in with a z-score of 0.414. In turn, `Cc1cccc(NC(=O)Cn2cnc3sc(C)c(S(=O)(=O)N4CCC(C)CC4)c3c2=O)n1` yielded a z-score of -1.5. Take `O=C(O)Cn1c(SCCOc2ccccc2)nc2ccccc21`: the z-score was -0.0566. With `CCN1CCN(C(=O)CSCc2nc(-c3ccc(OC)c(OC)c3)oc2C)CC1` the figure was 0.209; with `OC(COCC1COc2ccccc2O1)CN1CCN(c2ccccc2F)CC1` (configuration not stated), -0.377. `Cc1ccc(-c2nnn(CC(=O)N(c3ccccc3)C(C(=O)NC(C)(C)C)c3cccs3)n2)o1` (configuration not stated): the z-score is -0.243. The result for `CCOC(=O)C1CCN(C(=O)c2cccc(NC(=O)C(CC)CC)c2)CC1` reads 0.433; that for `CC(C(=O)N1CCN(c2ccccc2)CC1)N1C(=O)C2CC=CCC2C1=O` (configuration not stated), 0.028; that for `O=C1CC(c2ccco2)Sc2nc3ccccc3n21` (configuration not stated), active: 3.22. `C/C(=N\NC(=O)CSc1nnc(C)s1)c1ccc(Cl)cc1` had a z-score of -0.156. Molecule `O=C1C2CCCCN2C(=O)N1CCN1CCN(c2ccc([N+](=O)[O-])cc2)CC1` (configuration not stated) displayed a z-score of -0.2.

`Cc1ccc(NC(=O)CSc2nc(N)c3cc4c(nc3n2)CCCC4)cc1` displayed a z-score of -1.03. With `CNC(=O)CN1C(=O)NC2(CCc3ccccc32)C1=O` (configuration not stated) the figure was 0.183.

Turning to `Cc1c(C(=O)O)cccc1-c1ccc(/C=N/Nc2ccc(Br)cc2)o1`, the z-score is -0.485. With `CCOC(=O)Cn1c(-c2cccnc2Cl)nc2cc(C)c(C)cc21` the figure was 0.0323; with `O=C(NCc1ccco1)c1ccc(COc2cccc3ccccc23)cc1`, -0.2. Molecule `c1ccc(-c2nc3ccccc3c3nncn23)cc1` returned a z-score of 0.321. `Cn1c(SCC(=O)N/N=C/C=C\c2ccco2)nc2ccccc21`: the z-score was 0.668. On to `O=C(NCc1ccccc1)c1cccc(OCC(=O)N2CCN(C(=O)c3ccco3)CC2)c1`, for which the z-score is -0.018. For the molecule `C=CCn1c(=O)c2c(nc3n2CC(C)CN3c2cccc(OC)c2)n(C)c1=O` (configuration not stated), the z-score was -0.52.

For the molecule `CCn1c(SCC(=O)Nc2nc(C)cs2)nnc1-c1ccoc1C`, the z-score is -0.0665. With `c1ccc(-n2c(-c3cccs3)nc3nc4ccccc4nc32)cc1` the figure was -0.294; with `COC(=O)c1cc(C(=O)Nc2nnc(CC(C)C)s2)cc([N+](=O)[O-])c1`, -0.666; with `Cc1ccc(NC(=O)c2cc(-c3ccccc3)nn2-c2ccccc2)c(Br)c1`, 0.496. Molecule `CCCN1CCC(=NNc2ccc(S(=O)(=O)N3CCOCC3)cc2[N+](=O)[O-])CC1` yielded a z-score of 0.0209. The result for `CC1(C)Cc2ccccc2C(N/N=C/c2cccc(F)c2)=N1` reads 0.289; that for `O=[N+]([O-])c1ccc(N2CCCCC2)cc1NCCOc1ccccc1`, 0.0562; that for `O=C(CC(NCCc1ccccc1)C(=O)O)Nc1ccc(O)cc1` (configuration not stated), 0.33. Molecule `COCCNC(=S)N/N=C/c1ccc(N2CCOCC2)cc1` yielded a z-score of -0.189. As for `CC1(C)CC(=O)c2sc(NC(=O)CCS(=O)(=O)c3ccccc3)nc2C1`, the z-score is -0.0018.

Take `CC(=O)Nc1ccc(S(=O)(=O)NCC(=O)OCc2cc(=O)oc3ccc4ccccc4c23)cc1`: the z-score is -0.088. With `Cc1nc2ccccn2c1/C(O)=C1\C(=O)C(=O)N(CCCN(C)C)C1c1ccc(F)cc1` (configuration not stated) the figure was -0.187; with `Cc1cn2c(-c3ccncc3)nnc2s1`, -0.271.

`CCOCCn1c(SCCCc2ccccc2)nc2c1c(=O)[nH]c(=O)n2C` showed a z-score of -0.4. In turn, `O=C(Nc1cc(C(F)(F)F)ccc1F)C1CCCCC1` returned a z-score of 1.81. The result for `O=C1C(Oc2ccccc2)C(c2cccs2)N1Cc1ccc2c(c1)OCO2` (configuration not stated) reads 0.237; that for `CC(C)N(Cc1cc2ccccc2[nH]c1=O)C(=O)C1CCCCC1`, 0.128; that for `Cc1n[nH]c(=O)nc1NCc1ccccc1`, -0.734. With `CN(C)S(=O)(=O)c1ccc(C(=O)Nc2nnc(SCc3ccccc3)s2)cc1` the figure was -0.317; with `O=C(c1nnc(-c2ccncc2)o1)c1ccccc1Cl`, 0.577. For the molecule `Cc1cccc(NC(=O)NNC(=O)c2cc(-c3ccccc3Cl)nc3ccccc23)c1`, the z-score is -0.409. With `CCC(c1nnc(SCC(=O)Nc2ccc(C(C)=O)cc2)n1C1CCCCC1)N(C)C` (configuration not stated) the figure was -0.0905; with `Cc1ccc(-c2csc(=S)n2CC(=O)OCC(=O)NC(C)C(C)C)cc1` (configuration not stated), -0.423. With `Nc1nonc1C(=O)OCC(=O)N1CCOCC1` the figure was -0.145; with `O=[N+]([O-])c1ccccc1C1Nc2cccc3cccc(c23)N1`, 0.208; with `COc1ccc(-c2nc3c([nH]2)c(=O)n(C)c(=O)n3C)c(OC)c1`, -0.154.

Molecule `COc1ccc(CNc2nc3c(c(=O)[nH]c(=O)n3C)n2CCCc2ccccc2)cc1` came in with a z-score of 1.37.

Turning to `CCOC(=O)c1c(NC(=O)c2cc(C)oc2C)sc(C(=O)Nc2ccc(Cl)cc2)c1C`, the z-score amounted to 0.127. The molecule `O=C(CC12CC3CC(CC(C3)C1)C2)Nc1ccc2c(c1)COC2=O` yielded a z-score of -0.441. On to `CC(C)NS(=O)(=O)c1ccc(Oc2ncc(C(F)(F)F)cc2Cl)cc1`, for which the z-score stood at 0.531.

As for `NC(=O)c1ccc(-n2nnnc2SCc2ccccc2)cc1`, the z-score is -0.34. The result for `O=C(CSc1c[nH]c2ccccc12)NCc1ccc2c(c1)OCO2` reads 2.27; that for `Cc1ccc(N(CC(=O)NCc2ccncc2)S(C)(=O)=O)cc1`, -0.00504; that for `C/C=C/C=C/C(=O)Nc1nccs1`, 0.204. `COC(=O)COc1cccc(NC(=O)COc2ccccc2)c1`: the z-score was -1.71.

In turn, `O=C(O)c1c[nH]c2cc(C(F)(F)F)ccc2c1=O` displayed a z-score of -0.0696. In turn, `CC(=O)c1ccc(NC(=S)N2CCCC(CO)C2)cc1` (configuration not stated) came in with a z-score of -0.267. Turning to `CC1=C(C(=O)OC(C)C)C(c2coc3ccccc3c2=O)C2=C(CCCC2=O)N1` (configuration not stated), the z-score is -0.336. The result for `O=C(Nc1ccc(Cl)cc1)Nc1nnc(CSc2ccc(Cl)cc2)s1` reads -0.625. With `Cc1nc2ccccn2c1C(=O)N/N=C/c1cc(C)n(-c2ccc(Cl)cc2)c1C` the figure was -0.72.

Molecule `COc1cc(C(=O)OCC(=O)N2CCCC2)cc(OC)c1OC` displayed a z-score of -0.296.

`O=C(CSc1nc2[nH]ncc2c(=O)[nH]1)N1CCCC1`: the z-score is -0.204. With `Cc1ccc(Oc2ncc(CN3CC(C)OC(C)C3)s2)cc1` (configuration not stated) the figure was -0.107.

On to `COc1ccccc1NC(=S)NCc1cccnc1`, for which the z-score was -0.0019. Take `Cc1cc(=O)oc2cc(OCC3CC(c4ccc(Cl)cc4)=NO3)ccc12` (configuration not stated): the z-score is -0.0634. On to `Cc1nc2cc(-c3cccc(F)c3)nn2c(N2CCN(C(=O)c3ccco3)CC2)c1C`, for which the z-score is -0.0434. On to `CCOc1c(OC)cccc1C1CC(=O)Nc2cc(OC)c(OC)cc21` (configuration not stated), for which the z-score was -1.8.

`CC1=C(C(N)=O)C(c2ccccn2)n2nc(SCc3ccccc3)nc2N1` (configuration not stated) had a z-score of 0.156. With `Cc1cc(C)nc(NC(=O)/C=C/c2ccc(Cl)cc2Cl)c1` the figure was -0.494; with `Cc1ccccc1NS(=O)(=O)c1ccc(NC(=O)c2ccco2)cc1`, -0.401.

With `Cc1cc(C)nc(N2CCCC(C(=O)Nc3nc4ccc(S(C)(=O)=O)cc4s3)C2)n1` (configuration not stated), the z-score is -0.27.

In turn, `O=[N+]([O-])c1ccc(N2CCN(S(=O)(=O)c3ccc4ccccc4c3)CC2)cc1NCc1ccco1` came in with a z-score of -0.0817. `Cc1nn2cc(-c3ccc(N)cc3)nc2s1` returned a z-score of -0.741.

In turn, `CCOC(=O)c1c(-n2c(C)cc(C=O)c2C)sc2c1CCCC2` came in with a z-score of -0.366. `CN1CCN(C(=O)CN(Cc2ccccc2)S(C)(=O)=O)CC1` had a z-score of -0.686. `C/C(Cn1cnc([N+](=O)[O-])n1)=N\NC(=O)c1ccc(Br)cc1` gave a z-score of -0.261.

`COc1cc(/C=C(\C#N)c2nc3c(s2)CC(C)CC3)ccc1O` (configuration not stated): the z-score was determined as 1.58. `O=C(CSc1nnc(NC(=O)C2CCC2)s1)NC1CC1`: the z-score is 0.0674. The result for `CCOC(=O)c1c(-c2ccc(C)cc2)csc1NC(=O)C1CC=CCC1C(=O)O` (configuration not stated) reads 0.33; that for `Cc1ccc2[nH]c(=O)c(CN(CCN3CCOCC3)C(=O)Nc3ccccc3F)cc2c1`, -0.743; that for `Cc1nc(CSc2ccc(Cl)cc2)cc(N2CCOCC2)n1`, -0.356. Consider `N#CC1=C(N)Oc2cc(N)ccc2C1c1ccc(F)cc1` (configuration not stated), for which the z-score was -0.769. For the molecule `COc1cc(C(=O)O)ccc1OCc1c(C)noc1C`, the z-score was -0.061. Turning to `CCCCOc1ccccc1P(=O)(O)CP(=O)(c1ccccc1)c1ccccc1`, the z-score was determined as 0.154. `COc1ccc(CC(=O)c2ccc(OC)c(OC)c2C)cc1OC` had a z-score of -0.202. The result for `CCOC(=O)c1c(-c2ccc(F)cc2)csc1NC(=O)CCN1C(=O)c2ccccc2C1=O` reads 0.297; that for `COc1ccc(NC(=O)C(c2cc3c(cc2[N+](=O)[O-])OCO3)N(C)C)cc1` (configuration not stated), -0.349. With `C[N+]1(CC(=O)Nc2ccccc2Cl)CCN(C(=O)c2cccs2)CC1` the figure was 0.141. As for `CCOc1cc2c3c(c1)C1(Nc4ccccc4S1)C(=O)N3C(C)(C)CC2C` (configuration not stated), the z-score is -1.21. Molecule `C/C(=N\NC(=O)C(C)n1nc(C)c([N+](=O)[O-])c1C)c1ccccc1O` (configuration not stated) had a z-score of 0.938.

As to `CCCCCCOc1ccc(C(=O)n2cnc(N)n2)cc1`, the z-score is 0.329.

As for `Cc1ccccc1N(CC(=O)Nc1ccccc1C(=O)O)S(C)(=O)=O`, the z-score is 0.226.

Consider `CN(C(=O)CN1C(=O)c2ccccc2S1(=O)=O)c1ccccc1C(=O)O`, for which the z-score stood at 0.248. For `COc1ccc(C2=NC(C(F)(F)F)(C(F)(F)F)c3c(n(C)c(=O)n(C)c3=O)N2)cc1`, the z-score is 0.0715. With `O=C(Nc1ccccc1N1CCOCC1)C1CCN(S(=O)(=O)c2cccc(C(F)(F)F)c2)CC1` the figure was -0.294. In the case of `Cc1ncsc1CCOC(=O)c1cccc([N+](=O)[O-])c1`, the z-score was -0.117. Molecule `C/C(=N\NS(=O)(=O)c1ccc(Cl)c([N+](=O)[O-])c1)c1ccc(C)o1` gave a z-score of 0.17.
